Hit rate of the full screen: of about 150,000 compounds, about 540 (0.36%) showed an effect of 50% or more. Some of the results follow.

One may read the % Inhibition as the drop in the measured response relative to a control, in per cent.

The test concerns Plasmodium falciparum. Nature of the test: Primary screen in NF54 nanoGlo assay, in single point, at 2uM, 72h; a lower Z score goes with more inhibition. Format: functional, Erythrocyte. The note with it: timepoint 72 hour.
Consider `CC(C)[C@H](CNCc1cn(C(C)(C)C)nn1)c1cccnc1`, for which the “% Inhibition” value worked out at 5% and the Z score is -0.75.

For `CCc1ccccc1/N=C(\NCc1c(C)nn(CC)c1C)NC(=O)c1ccccc1`, the “% Inhibition” value is -9% and the Z score turned out to be 1.53.

With `Cc1cc(C)cc(NC(=O)C(C)(C)C)c1`, the “% Inhibition” value is -14% and the Z score was found to be 2.59.

Take `CCOc1cc(CNc2cncc(-n3nc(C)cc3C)n2)ccn1`: the “% Inhibition” value is -1% and the Z score was found to be 0.15.

As to `CN(CC(=O)N[C@H]1CCS(=O)(=O)C1)C1CCCCCCC1`, the “% Inhibition” value is listed as -10% and the Z score stood at 0.89.

Consider `CCC(CC)(CO)CN(C)C(=O)c1cccc2c1CCC2=O`, for which the “% Inhibition” value worked out at 0% and the Z score was found to be 0.01.

Turning to `Cn1cc(CNCc2c(C(=O)N3CCCCCCC3)nc3ccc(Cl)cn23)cn1`, the “% Inhibition” value is recorded as -14% and the Z score is on record as 2.38.

On to `CCOc1ccc(CN2CCN(C(=O)c3cccs3)CC2)cn1`, for which the “% Inhibition” value stood at 0% and the Z score is on record as -0.05.

In the case of `Cc1ccc(CN[C@H]2CC(C)(C)Cc3nc(N4CCOCC4)ncc32)s1`, the “% Inhibition” value is -2% and the Z score came to 0.27.

As for `Cc1nnsc1C(=O)NCCn1nc(-c2ccccn2)n(C)c1=O`, the “% Inhibition” value turned out to be 5% and the Z score was -0.7.

With `CC(C)Oc1nc(-c2cccs2)n(-c2cccc(NC(=O)c3ccc(F)cc3)c2)n1`, the “% Inhibition” value is reported as -15% and the Z score is listed as 1.58.

Consider `COc1ccc(-c2cccc(C(=O)NCCc3n[nH]c(=O)n3C)c2)cc1C`, for which the “% Inhibition” value is -7% and the Z score came to 0.86.

Turning to `Cn1c(-c2nccn2CCc2c[nH]c(=O)[nH]c2=O)nc2ccccc21`, the “% Inhibition” value is -7% and the Z score was 1.03.

As for `CCN1CCC(N2C[C@H](COc3ccc(F)cc3)OCC2=O)CC1`, the “% Inhibition” value was -10% and the Z score was determined as 1.25.

Take `Cc1ccccc1C(=O)N(Cc1cccc(F)c1)c1ccc(CC(=O)N(C)Cc2ccccc2)cc1`: the “% Inhibition” value was -9% and the Z score is on record as 1.19.

`CCO[C@H]1COC[C@@H]1NC(=O)c1cnc(N)s1`: the “% Inhibition” value is -1% and the Z score was 0.17.

Turning to `CCc1c(C)nc(-c2cccc(C)c2)nc1N1CCN(C(=O)Nc2ccccc2OC)CC1`, the “% Inhibition” value was -2% and the Z score worked out at 0.27.

As for `CC(C)c1nc(N2CCOc3c(O)cc(-c4ccc(Cl)cn4)cc3C2)no1`, the “% Inhibition” value is recorded as -12% and the Z score is recorded as 1.21.

Consider `O=C(c1ccco1)N1CCOc2ccc(CN3CCOCC3)cc2C1`, for which the “% Inhibition” value is listed as -6% and the Z score was 1.13.

Regarding `COCC(C)(C)CNC(=O)[C@]1(C)CCCCO1`, the “% Inhibition” value is -6% and the Z score is reported as 0.97.

Regarding `OC(c1ccccc1)(c1ccccc1)C1CCN(c2ccc3nnc(-c4ccc(F)cc4)n3n2)CC1`, the “% Inhibition” value is on record as -11% and the Z score amounted to 1.69.

Take `Cc1nc(C(=O)N2CCN(Cc3ccc(Cl)cc3C)CC2)n(C)n1`: the “% Inhibition” value was -4% and the Z score turned out to be 0.76.

With `CN(C)c1nc2c(c(=O)[nH]c(=O)n2C)n1C[C@H](O)c1ccccc1`, the “% Inhibition” value came out at 5% and the Z score is recorded as -0.69.

Turning to `COc1ccccc1CNc1ccc(C(=O)N2CCN(C)CC2)cc1S(=O)(=O)Nc1cccc(C(F)(F)F)c1`, the “% Inhibition” value is reported as -8% and the Z score turned out to be 1.51.

Regarding `CNC(=O)[C@@H]1C[C@@H](Nc2ncccn2)CN1Cc1ccc2c(c1)OCCO2`, the “% Inhibition” value is listed as -3% and the Z score worked out at 0.52.

Consider `CC1CCC2(CC1)OC[C@@H](C(=O)N1CCCN(C)CC1)N2C(=O)c1ccccc1F` (stereo partly specified), for which the “% Inhibition” value worked out at 1% and the Z score is reported as -0.19.

In the case of `CCN1CCCN(S(=O)(=O)Cc2cccc(Cl)c2)CC1`, the “% Inhibition” value came to 6% and the Z score is given as -0.77.

Regarding `CC(=O)NCCN1CCc2[nH]nc(-c3ccc(-c4ccccc4)cc3)c2C1`, the “% Inhibition” value came out at 6% and the Z score was -1.

Take `COc1ccccc1NC(=O)Cn1nc2c(N(C)C)nc3ccccc3n2c1=O`: the “% Inhibition” value is -12% and the Z score was 1.63.

Regarding `Cc1cc(C)n2nc(N3CCNCC3)c(S(=O)(=O)c3ccccc3)c2n1`, the “% Inhibition” value is reported as -3% and the Z score is on record as 0.35.

Consider `O=C(CC1CCN(C(=O)c2ccc3oc(-c4ccccc4)nc3c2)CC1)NCc1ccc(F)cc1`, for which the “% Inhibition” value is listed as -2% and the Z score was determined as 0.18.

Turning to `COCCNCCOc1cccc(C)c1`, the “% Inhibition” value was -16% and the Z score is 2.04.

For `CCC[C@H](NC(=O)Nc1cccc2nnc(C)cc12)c1nccn1C`, the “% Inhibition” value is 7% and the Z score is -0.96.

With `Cc1c(CNC2CCC(C)CC2)c(C(=O)O)c(C)n1Cc1cccc(F)c1` (stereo unspecified), the “% Inhibition” value is -7% and the Z score turned out to be 0.92.

As to `Cc1cc(C)c(N2CC[C@H](NC(=O)c3cnn(C)c3)C2=O)c(C)c1`, the “% Inhibition” value came out at 4% and the Z score is given as -0.8.

Take `O=C(c1csnn1)N1CCOC12CCCCC2`: the “% Inhibition” value stood at 3% and the Z score is -0.39.

`O=C1CC(C(=O)N2CC3CCCCC3C2)CCN1` (stereo unspecified): the “% Inhibition” value was 33% and the Z score is recorded as -3.78.

As to `O=C(NCc1ccc(Cl)cc1Cl)c1ccc(NS(=O)(=O)c2ccc(F)c(F)c2)cc1`, the “% Inhibition” value is -7% and the Z score stood at 0.75.

With `O=C(c1cc(=O)[nH]c2ccccc12)N1CCC(Nc2ncccn2)CC1`, the “% Inhibition” value was -13% and the Z score turned out to be 2.65.

With `CC(NC(=O)N(C)CC1CCN(C)C1)c1ccc(OC(F)F)cc1` (stereo unspecified), the “% Inhibition” value was -3% and the Z score was 0.49.

As to `Cc1noc([C@H]2CCCN(C(=O)N3CCc4ccccc43)C2)n1`, the “% Inhibition” value is -5% and the Z score stood at 0.57.

In the case of `Cc1ccc(CN2c3ccc(F)cc3OC[C@@H]2CC(=O)NCc2ccc(Cl)cc2)cc1`, the “% Inhibition” value is given as -9% and the Z score turned out to be 1.22.

Regarding `COc1ccc(S(=O)(=O)N2CCOCC2)cc1NC(=O)C1(CC(=O)NC2CC2)CCCC1`, the “% Inhibition” value was -6% and the Z score was 0.8.

As to `Cc1cccc(C)c1OC[C@@H](O)CN1CCN(c2nccs2)CC1`, the “% Inhibition” value is given as -1% and the Z score is on record as 0.08.

For `CC(C)CNCc1ccc(C(=O)O)cc1`, the “% Inhibition” value was -10% and the Z score worked out at 1.46.

Regarding `C[C@H]1[C@@H](NC(=O)C(F)(F)F)CCCN1c1ccc2nnc(C(F)(F)F)n2n1`, the “% Inhibition” value was -1% and the Z score stood at 0.17.

As to `CC(C)CN(C1CCOCC1)C1CN(Cc2ccccc2F)C1`, the “% Inhibition” value is reported as -12% and the Z score is on record as 2.33.

On to `COc1ccc(C2CCCN2C(=O)C2CNCCO2)cc1OC` (stereo unspecified), for which the “% Inhibition” value is -2% and the Z score is listed as 0.28.

Turning to `CC1CN(C(=O)OCC(F)(F)F)CC[S+]([O-])C1` (stereo unspecified), the “% Inhibition” value is listed as -2% and the Z score worked out at 0.21.

As for `CC1(C)C(=O)Nc2ccc(C(=O)NC3(c4ccccc4)COC3)cc21`, the “% Inhibition” value is -20% and the Z score came to 3.04.

Regarding `CC(C)(C)NC(=O)c1nsc(Cl)c1Cl`, the “% Inhibition” value was -11% and the Z score is on record as 1.38.

Take `Cn1ncc2cc(NC(=O)N3CCCN(C(=O)C(F)(F)F)CC3)ccc21`: the “% Inhibition” value is -7% and the Z score is reported as 1.13.

In the case of `CN(C[C@H]1CCCN(c2ncncc2Br)C1)S(C)(=O)=O`, the “% Inhibition” value was -1% and the Z score was found to be 0.17.

The record behind these values is ChEMBL document CHEMBL4888484, “Replenishing the malaria drug discovery pipeline: Screening and hit evaluation of the MMV Hit Generation Library 1 (HGL1) against asexual blood stage Plasmodium falciparum ,using a nano luciferase reporter read-out” (2022).
